Measured values taken from PubChem BioAssay AID1963576 (National Center for Advancing Translational Sciences (NCATS), 2024).
The whole screen tested about 46,000 compounds, of which about 60 (0.1%) were called active. Not shown: some 3% with an inconclusive outcome. The call rests on the fitted dose curve; in most records, active means well fitted inhibition curve with a large enough effect; inconclusive means small, poorly fitted or top-dose-only effect; inactive means no such curve, though single readings can be large or run the other way. The list shows a part of the results.

assay: Primary qHTS assay for Inhibitors of ovarian cancer metastasis using an organotypic tumor microenvironment (TME) model.; further: nearly all actives have a fitted effect of over 65% in size;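 on activity change, negative = inhibition: plate controls were DMSO wells for no effect and tomatine positive control wells for full effect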; settings: SKOV3ip1-GFP adhesion/invasion on 3D omental model, fluorescence; series mostly up to 45.8 µM; activity change, negative = inhibition: at the top concentration
Outline: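 qHTS, 4-pt dose (0.36-46 umol/L); SKOV3ip1-GFP, 1,200 cells/well, no FBS; primary omental fibroblast/mesothelial co-culture 48 h pre-grown; 2 h RT + 16 h 37 C; PBS wash, 4% PFA; GFP count 488/509 nm.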

| Compound | activity change, negative = inhibition | outcome |
| --- | --- | --- |
| COc1ccc(OC)c(-c2nnc3n(Cc4ccc(C)cc4)c(=O)c4ccccc4n23)c1 | inactive: -5.63% | – |
| Cc1cccc(Cn2c(CNS(=O)(=O)c3ccc4c(c3)CCCC4)nc3cccnc32)c1 | – | inactive |
| C=Cc1ccc(Cn2c(C)c(CNCc3cccc(Br)c3)c(C(=O)O)c2C)cc1 | inactive: 4.35% | – |
| COc1ccc(Cc2nc3ccccc3[nH]c2=O)cc1 | inactive: -16% | – |
| O=C(c1ccccc1Cl)N1c2ncnn2C2(CCCCC2)[C@@H]2CCCC[C@@H]21 | inactive: -3.1% | – |
| COC(=O)c1ccc(OCC2c3cc(OC)c(OC)cc3CCN2C(=O)COc2ccc(Cl)cc2)cc1 (stereo not given) | inactive: -8.48% | – |
| COc1ccc(F)cc1S(=O)(=O)NCCc1csc2nc(-c3cccc(C)c3)nn12 | inactive: -1.59% | – |
| CCOC(=O)c1c(S(=O)(=O)N2CCCC(C(=O)NCc3ccc(Cl)cc3)C2)c(C)n(C)c1C (stereo not given) | inactive: 9.86% | – |
| CCc1cccc(NC(=O)C2CCN(C(=O)c3cnn(-c4ccccc4)c3-n3cccc3)CC2)c1 | – | inactive |
| Nc1nc(Nc2ccccc2F)sc1C(=O)c1ccc(Cl)cc1 | inactive: 1.14% | – |
| CCOC(=O)C1CCCN(C(=O)c2nn(-c3ccc(OC)cc3)c(=O)c3c2c2ccccc2n3C)C1 (stereo not given) | inactive: 1.63% | – |
| Cc1cccc(NC(=O)CCS(=O)(=O)c2ccc3c(c2)n(C)c(=O)c(=O)n3C)c1C | inactive: 16.1% | – |
| CCOC(=O)c1noc2ncn(CC(=O)Nc3ccc(C)c(F)c3)c(=O)c12 | inactive: 28.7% | – |
| Cc1c(C(=O)N(Cc2ccccc2F)C2CCS(=O)(=O)C2)oc2ccc(F)cc12 (stereo not given) | inactive: -11.9% | – |
| O=c1cc(-c2ccccc2)n2c(SCc3ccccc3)nnc2[nH]1 | inactive: -19.2% | – |
| CCc1ccc(-n2nc(C)c3c(C)cc(=O)n(CC(=O)N4CCCc5ccccc54)c32)cc1 | inactive: 1.27% | – |
| Cc1ccc(-n2c(=O)c3c(C)c(C(=O)N(C)C)sc3n(CC(=O)C(C)(C)C)c2=O)cc1C | – | inactive |
| CCc1ccc(-n2nc3cc(C)c(NC(=O)c4cccc5ccccc45)cc3n2)cc1 | inactive: -6.27% | – |
| Cc1cccc(CNC(=O)Cn2nc(C)n3c(cc4cc(F)ccc43)c2=O)c1 | – | inactive |
| CN(c1ncnc2onc(-c3cccc(Cl)c3)c12)C1CCCCC1 | – | inactive |

| Compound | activity change, negative = inhibition | outcome |
| --- | --- | --- |
| Cn1c(=O)c2c(SCC(=O)NCc3ccco3)nc(-c3ccccc3)nc2n(C)c1=O | inactive: -5.04% | – |
| Cn1c(=O)c2c(nc(NCc3ccccc3)n2Cc2ccccc2)n(C)c1=O | inactive: -6.72% | – |
| COc1ccc(N2CC(NC(=O)COc3ccccc3)CC2=O)cc1OC (stereo not given) | inactive: -13.8% | – |
| CC1CCn2c(nc3cc(C(=O)NCCc4ccc(Cl)cc4)ccc32)C1 (stereo not given) | – | inactive |
| Cc1ccc(-n2nc(CO)c(C(=O)NCc3ccccn3)n2)cc1C | – | inactive |
| Cc1ccc(CNC(=O)c2cc3c(s2)-c2ccccc2SC3)cc1 | inactive: 19.8% | – |
| CCOC(=O)c1ccc(NC(=O)Nc2c[nH]c(=O)[nH]c2=O)cc1 | inactive: -3.82% | – |
| CC(C)CN(CCCNC(=O)Cn1ncc2c3ccccc3n(C)c2c1=O)CC(C)C | inactive: 1.62% | – |
| CCn1cc(C(=O)N2CCN(c3cccc(C(F)(F)F)c3)CC2)c2cc(OC)c(OC)cc2c1=O | – | inactive |
| COc1ccccc1-c1cc2nc(C)c(CCC(=O)Nc3ccc(Br)c(C)c3)c(C)n2n1 | – | inactive |
| O=C(NC1(C(F)(F)F)C(=O)Nc2c1c(=O)[nH]c(=O)n2CCc1ccccc1)c1ccc(Cl)cc1Cl (stereo not given) | – | inactive |
| CCc1ccc(OC(C)C(=O)N2CCC(c3nc4ccccc4s3)CC2)cc1 (stereo not given) | inactive: -9.37% | – |
| Cc1cc(C)cc(NC(=O)CCS(=O)(=O)c2cc3c4c(c2)CCN4C(=O)CC3)c1 | – | inactive |
| Cc1ccc(N2CC(NC(=O)Cc3cccs3)CC2=O)cc1C (stereo not given) | inactive: 6.31% | – |
| Cc1nc(N2C(=O)c3oc4ccccc4c(=O)c3C2c2cccc(OCCC(C)C)c2)sc1C (stereo not given) | inactive: 2.78% | – |
| CCOC(=O)N1CCc2c(sc(NCc3cccc(F)c3)c2C(=O)Nc2ccccc2OCC)C1 | inactive: -0.344% | – |
| CCOc1ccc(-c2nonc2NC(=O)c2oc3ccc(Br)cc3c2C)cc1 | inactive: -3.82% | – |
| O=C(CSc1nnc(-c2ccccc2)c(-c2ccccc2)n1)NC1CCCCC1 | inactive: -2.73% | – |
| CCOc1ccc(/C=C(\C#N)c2nc3ccccc3c(=O)[nH]2)cc1OC | inactive: 7.57% | – |
| CCOc1ccccc1NC(=O)C1CCCN(S(=O)(=O)c2c(C)[nH]c(=O)[nH]c2=O)C1 (stereo not given) | inactive: -7.51% | – |

| Compound | activity change, negative = inhibition | outcome |
| --- | --- | --- |
| COc1ccc2c(c1)CCc1c(C(=O)Nc3ccc(F)c(Cl)c3)noc1-2 | inactive: 9.86% | – |
| CCc1nc2ccc(C(=O)N3CCN(c4ccccc4)CC3)cc2nc1CC | inactive: 12.1% | – |
| COC(=O)c1nnn(CC(=O)NC(=O)Nc2cccc(C)c2C)c1C(=O)OC | – | inactive |
| O=C(O)c1cn(-c2ccc(F)cc2)c2cc(N3CCNCC3)c(F)cc2c1=O | inactive: -7.03% | – |
| O=C(Nc1cccc(-c2nc3ccccc3o2)c1)c1ccc(-c2ccc(Br)cc2)o1 | inactive: 3.05% | – |
| CCC(=O)Nc1nnc(SCc2cc(=O)c3cc(C)ccc3[nH]2)s1 | inactive: -1.01% | – |
| COc1ccc(S(=O)(=O)N(CCc2ccccc2)CC(=O)Nc2ccc(C)c(C)c2)cc1OC | inactive: 0.13% | – |
| CCOc1cc(-c2nnc(SCC(=O)Nc3ccc(F)c(F)c3)nc2-c2ccc(OC)c(OCC)c2)ccc1OC | – | inactive |
| CCOc1ccc(CNS(=O)(=O)c2c(C(=O)N3CCC(C)CC3)c(C)n(C)c2C)cc1OC | inactive: 5.58% | – |
| CC(=O)N1CCc2c(sc3c2c(=O)n(-c2ccccc2)c(=O)n3CC(=O)Nc2cccc(C)c2)C1 | – | inactive |
| Cc1c(C(=O)OC2CCCC2)[nH]c2c1C(=O)CC(c1ccc(Cl)cc1)C2 (stereo not given) | – | inactive |
| O=S(=O)(Nc1ccc(-c2ccc(N3CCCC3)nn2)cc1)c1ccc(Cl)cc1 | inactive: -4.55% | – |
| COc1ccccc1CNC(=O)CCC1N=C2c3ccccc3N=C(SCc3cccc(Cl)c3)N2C1=O (stereo not given) | – | inactive |
| COc1ccccc1CNC(=O)CCCc1nnc2n(CC(C)C)c(=O)c3sccc3n12 | inactive: 5.11% | – |
| CC(C)N(C(=O)CSc1nc2ccc(Cl)cc2[nH]1)c1ccccc1 | inactive: 0.0488% | – |
| CCOc1ccc(OCC)c(NS(=O)(=O)c2cc(Br)cc3c2N(C(C)=O)C(C)C3)c1 (stereo not given) | – | inactive |
| COc1ccc(-c2cc3nc(-c4ccc(C)cc4)cc(C(F)(F)F)n3n2)cc1 | inactive: 11.7% | – |
| O=C(c1ccc(F)cc1)N1c2nc(-c3ccco3)nn2C2(CCCCC2)[C@@H]2CCCC[C@@H]21 | – | inactive |
| CNS(=O)(=O)c1cn(CC(=O)Nc2ccc(OC)cc2OC)cc1S(=O)(=O)NC | inactive: -2.47% | – |
| Cc1ccc(/C=C/c2onc(C)c2S(=O)(=O)N2CCC(C(=O)Nc3ccc(Br)c(C)c3)CC2)cc1 | inactive: -16.5% | – |
